Hit rate of the full screen: of about 310,000 compounds, about 2,200 (0.71%) showed an effect of 50% or more. Effects have a minus sign here. Some of the results follow.
molecular target: human ether-à-go-go-related gene (hERG) potassium channel (human, UniProt Q12809); assay: primary screen, population patch clamp on CHO cells stably expressing hERG
Sequence (Q12809 whole entry, looked up): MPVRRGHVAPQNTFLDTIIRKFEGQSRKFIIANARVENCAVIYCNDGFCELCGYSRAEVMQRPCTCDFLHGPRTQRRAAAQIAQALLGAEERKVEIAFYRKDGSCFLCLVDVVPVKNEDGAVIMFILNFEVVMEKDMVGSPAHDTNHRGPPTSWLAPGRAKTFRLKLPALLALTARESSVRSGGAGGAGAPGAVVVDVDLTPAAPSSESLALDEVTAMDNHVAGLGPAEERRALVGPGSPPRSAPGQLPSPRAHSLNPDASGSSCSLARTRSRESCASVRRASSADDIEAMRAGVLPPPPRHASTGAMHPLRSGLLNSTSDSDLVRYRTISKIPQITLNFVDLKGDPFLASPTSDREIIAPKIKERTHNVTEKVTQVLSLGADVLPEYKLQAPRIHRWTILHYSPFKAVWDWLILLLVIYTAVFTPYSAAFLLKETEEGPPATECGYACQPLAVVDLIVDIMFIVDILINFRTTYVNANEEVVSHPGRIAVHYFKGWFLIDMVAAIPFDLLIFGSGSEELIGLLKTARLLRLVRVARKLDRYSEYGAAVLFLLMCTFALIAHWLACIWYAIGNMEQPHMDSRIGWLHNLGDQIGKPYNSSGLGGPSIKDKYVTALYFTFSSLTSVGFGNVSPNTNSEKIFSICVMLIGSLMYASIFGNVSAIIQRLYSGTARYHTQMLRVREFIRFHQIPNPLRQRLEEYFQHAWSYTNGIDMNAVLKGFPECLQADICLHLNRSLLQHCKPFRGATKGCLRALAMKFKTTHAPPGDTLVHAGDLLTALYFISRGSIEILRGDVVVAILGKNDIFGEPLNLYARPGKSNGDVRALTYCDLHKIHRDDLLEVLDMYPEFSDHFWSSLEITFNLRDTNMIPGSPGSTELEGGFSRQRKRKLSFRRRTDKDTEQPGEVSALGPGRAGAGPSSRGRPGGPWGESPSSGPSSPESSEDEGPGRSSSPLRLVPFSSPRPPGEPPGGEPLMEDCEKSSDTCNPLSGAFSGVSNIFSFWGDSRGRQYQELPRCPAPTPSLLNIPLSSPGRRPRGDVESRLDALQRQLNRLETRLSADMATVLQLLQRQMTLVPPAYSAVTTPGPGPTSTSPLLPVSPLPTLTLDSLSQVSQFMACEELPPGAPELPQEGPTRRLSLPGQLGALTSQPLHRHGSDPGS

| Compound | hERG current change (%, negative = inhibition) at 1uM [%] |
| --- | --- |
| O=C(Nc1ccccc1)OCCCc1ccccc1 | 8.84 |
| CCOC(=O)c1c(-c2ccccc2)nc2ccc(C)cn12 | -3.58 |
| Cc1ccc(S(=O)(=O)Nc2ccc(C(=O)Nc3cc(C)on3)cc2)cc1 | 10.4 |
| C/C(=N\n1nnnc1Nc1ccccc1)c1ccc(N)cc1 | 12.2 |
| Cc1nc2sccn2c(=O)c1Cl | 10.9 |
| CCc1nc(-c2ccc(C)nc2OC)no1 | 16.5 |
| Nn1cc(-c2ccccc2)nc1SCC(=O)NCC1CCCO1 (stereo not shown) | 9.87 |
| C[n+]1ccccc1/C=N/O.[I-] | 15 |
| N#Cc1ccc(CSc2ccccn2)c(Cl)c1 | 12.6 |
| CCCCCC1(C)NC(=S)N(c2ccccc2)N1 (stereo not shown) | 7.72 |
| O=C(c1ccc(Cl)c([N+](=O)[O-])c1)N(Cc1cccc(Cl)c1)C1CCS(=O)(=O)C1 (stereo not shown) | 8.54 |
| O=C(NCCCN1CCCC1=O)c1cccc(N2CCCC2=O)c1 | 10.9 |
| c1coc(-c2nc3nc4ccccc4n3nc2-c2ccco2)c1 | 15 |
| O=S(=O)(NCCc1ccccc1)c1ccc(Cl)nc1 | 8.32 |
| Cc1cccc(N(Cc2ccccc2)C(=O)c2ccccc2S(C)(=O)=O)c1 | 16.5 |
| CCCCn1c(N)c(NCc2ccccc2OC)c(=O)[nH]c1=O | 11.9 |
| COc1ccc(CC(=O)N2CCN=C2SC)cc1 | 14.4 |
| Br.Cn1c(=N)n(CC(=O)c2ccccc2)c2ccccc21 | 4.58 |
| Cc1ccc(S(=O)(=O)NCCC(=O)Nc2cc(F)ccc2C)cc1C | 11.6 |
| Fc1ccccc1CNC(=S)NCc1ccc(Cl)cc1 | 8.07 |
| Cc1cc(C)[n+]2n1C(=O)C(c1ccccc1)=C2[O-] | 14.9 |
| Cc1ccn(CCC(=O)N2CCc3ccccc32)n1 | 11.3 |
| CC(C)(C)NC(=O)c1cccc(NC(=O)c2cccc(O)c2)c1 | 3.16 |

| Compound | hERG current change (%, negative = inhibition) at 1uM [%] |
| --- | --- |
| Cc1ccc(NC(=O)CS(=O)CC(=O)N2CCN(C3CCCC3)CC2)cc1 (stereo not shown) | 19.6 |
| CC1CCN(S(=O)(=O)c2cn(CC(=O)N3CC(C)CC(C)C3)c(=O)c3ccccc23)CC1 (stereo not shown) | 10.7 |
| Cn1nnc(NC(=S)NC(=O)c2cccc3ccccc23)n1 | 19.9 |
| Cc1ccc(SCC(=O)N/N=C/c2ccco2)cc1 | 8.4 |
| COc1ccc(-c2cc(-c3ccccc3O)[nH]n2)cc1 | 13.9 |
| COc1ccc(/C=C/C(=O)O)cc1S(=O)(=O)N1CCc2ccccc2C1 | 12.6 |
| Cc1ccc(NC(=O)c2ccc3c(c2)nnn3C)cc1 | 10.5 |
| O=[N+]([O-])c1ccccc1SN(Cc1ccccc1)c1ccccn1 | 14.9 |
| O=C(CNc1ccc(Br)cc1)Nc1ccc(S(=O)(=O)N2CCCC2)cc1 | -5.67 |
| COc1ccc(S(=O)(=O)NCc2ccncc2)cc1NC(=O)c1ccccc1 | -5.36 |
| O=C(c1ccc2c(c1)OCO2)C1CCCN(Cc2c(F)ccc(F)c2F)C1 (stereo not shown) | 11.5 |
| C=CCOc1ccc(CN(C)CC(O)COc2ccc(CCC(C)=O)cc2)cc1 (stereo not shown) | -6.81 |
| COc1ccccc1NS(=O)(=O)c1cc(C(=O)NCC(c2ccco2)N2CCCCC2)ccc1C (stereo not shown) | -7.95 |
| COc1cc2[nH]c(-c3ccc(C)cc3)cc(=O)c2cc1OC | 9.12 |
| O=c1c2ccccc2c(-c2ccc(O)cc2)nn1-c1cccc(C(F)(F)F)c1 | 13.9 |
| CC1(C)CC(NC(=O)c2cc(S(=O)(=O)N3CCCCC3)ccc2Cl)CC(C)(C)N1 | -3.75 |
| CCOC(=O)C[N+](CC)(CC)CC#Cc1ccccc1 | 12.1 |
| CCOC(=O)CC(=O)CSc1[nH]c(=O)cc(C)c1C#N | 7.73 |
| CCN(CC(=O)Nc1c(F)cccc1F)C(=O)CNC(=O)c1ccco1 | 4.72 |
| Cc1c(CC(=O)N[C@@H](CCCNC(N)=O)C(=O)O)c(=O)oc2cc3oc4c(c3cc12)CCCC4 | 16 |
| CCNc1cc2oc(=O)c(CN3CCOCC3)c(C)c2cc1C | 0.327 |
| CC1CC(C)CN(C(=O)C2CCN(S(=O)(=O)c3ccc4c(c3)CC(C)N4C(=O)C3CC3)CC2)C1 (stereo not shown) | 10.2 |
| COc1cc(NC(=O)c2cccc(Br)c2)nc(OC)n1 | 12.6 |

| Compound | hERG current change (%, negative = inhibition) at 1uM [%] |
| --- | --- |
| Cc1c(C)c2ccc(OCC(=O)Nc3ccccc3C(N)=O)cc2oc1=O | 4.86 |
| CCOc1cccc(C=NCCc2ccc(OC)c(OC)c2)c1O | 15.9 |
| CCOc1cccc2cc(C(=O)NCc3ccccc3)c(=N)oc12 | 10.9 |
| O=C(c1ccccc1)n1nnc2ccccc21 | 3.72 |
| COc1ccc(CCN2C(=O)c3ccccc3NC2c2cc(Cl)c(O)c(OC)c2)cc1 (stereo not shown) | 11.7 |
| Cc1ccc(-c2nnc(Nc3ccc(CC(N)=O)cc3)c3ccccc23)cc1S(=O)(=O)NCCO | 8.63 |
| Cc1cc(C)nc(N2CCC(C(=O)NC3CCCc4ccccc43)CC2)n1 (stereo not shown) | 7.93 |
| COc1ccc(N2C(=O)/C(=C/c3cccs3)NC2=S)cc1 | 11.7 |
| Cc1ccccc1CNC(=O)C(=O)Nc1nccs1 | 17.9 |
| COC(=O)Nc1nc2ccc(C(=O)c3cccs3)cc2[nH]1 | 0.619 |
| Cc1cccc(Nc2nnc(SCC(=O)NC(=O)CN3CCCC3=O)s2)c1 | 13.7 |
| COc1ccc(Cl)cc1NC(=O)c1[nH]c(C)c(C(C)=O)c1C | 7.01 |
| S=c1[nH]nc(-c2ccncc2)n1/N=C/c1ccccc1Cl | 17.2 |
| CCOC(=O)c1c(C)n(C)c2ccc(OC)c(NS(=O)(=O)c3ccc(Cl)s3)c12 | 5.59 |
| CC1=C(C(=O)Nc2ccccc2C)C2(CCCC2)C(C(N)=O)C(=O)N1 (stereo not shown) | 8.59 |
| Nc1nnc(/C=C/c2ccccc2)s1 | 21.5 |
| COc1ccc(Cl)cc1-c1nc(SCC(=O)NC(C)(C)C)n[nH]1 | 6.75 |
| CCc1cc(=O)n2c([nH]c3ccccc32)c1C#N | 16 |
| CCOC(=O)N1CCN(C(=O)CCSc2ccc(C)cc2)CC1 | 0.89 |
| CCCCOP(=O)(OCCCC)C(O)c1ccc(Br)cc1 (stereo not shown) | 8.37 |
| COCCn1c(=N)c(C(=O)NCCc2ccccc2)cc2c(=O)n3cccc(C)c3nc21 | -86.1 |
| CC(=O)c1c(C)[nH]c(C(=O)N2CC(C)CC(C)C2)c1C (stereo not shown) | 12.2 |
| COc1ccccc1CN1CC(C(=O)NCCN(C)CCc2ccccc2)CCC1=O (stereo not shown) | -32.1 |

| Compound | hERG current change (%, negative = inhibition) at 1uM [%] |
| --- | --- |
| COC(=O)c1[nH]c2ccc(Cl)cc2c1NC(=O)CN1CCc2cc(OC)c(OC)cc2C1 | 12.9 |
| CCC1=NN(C(=O)c2ccc([N+](=O)[O-])cc2)C(O)(c2ccccc2)C1 (stereo not shown) | 6.13 |
| COc1ccc(N=Nc2cc(C)ccc2O)cc1 | 11.1 |
| CCSc1nnc(CNC(=O)C23CC4CC(CC(C4)C2)C3)n1C1CCCCC1 | 14.2 |
| O=C(CSc1ccc([N+](=O)[O-])cn1)Nc1ccc(N2CCOCC2)cc1 | 6.63 |
| Cc1ccsc1C1CC(=O)NC2=C1C(=O)CC(C)(C)C2 (stereo not shown) | 14.4 |
| Cc1cc(-c2nnc(SCC(=O)Nc3nc(-c4ccc(Cl)cc4)cs3)o2)no1 | 14.9 |
| CC1CC(=O)NN=C1c1ccc(N(C)C)c([N+](=O)[O-])c1 (stereo not shown) | 0.945 |
| O=C(NCc1ccccc1)C(c1ccncc1)N(C(=O)c1csnn1)c1cccc(F)c1 (stereo not shown) | 8.92 |
| COc1ccc(C(=O)NCCN2CCN(C(=O)c3ccc(OC)c(OC)c3)CC2)cc1OC | 13.2 |
| CN(C)c1ccc(C(=O)c2ccc(N(C)C)c(N)c2)cc1N | -1.18 |
| CCn1cc(CN2CCN(CC(C)(C)C)C(CCO)C2)c2ccccc21 (stereo not shown) | 11.3 |
| Cc1ccc(C(=O)/C=C/Nc2ccccc2C(N)=O)o1 | 0.319 |
| CCSC1=NSC2=NC(=O)/C(=C\c3coc4ccccc4c3=O)C(=N)N12 | 4.51 |
| Cc1ccc(C(=O)Nc2cccc(N(C)S(C)(=O)=O)c2)cc1S(=O)(=O)Nc1ccccc1 | 0.389 |
| O=C(C1CCN(S(=O)(=O)c2ccc(Br)cc2)CC1)N1CCOCC1 | -1.91 |
| COc1cccc(NC(=O)[C@@H]2CCCN2C(=O)C2CCN(S(=O)(=O)c3ccc(C)cc3)CC2)c1 | 1.83 |
| O=C(CCNS(=O)(=O)c1ccc2[nH]c(=O)oc2c1)Nc1ccccc1 | 10.5 |
| CC1CCCCN1S(=O)(=O)c1ccc(C(=O)Nc2ccccc2-c2nc3ccccc3s2)cc1 (stereo not shown) | 12.1 |
| Cc1ncc(CO)c(/C=N/NC(=S)Nc2ccc(F)cc2)c1O | 18.4 |
| O=C1Nc2ccccc2N(O)N1c1ccc(S(=O)(=O)N2CCCCCC2)cc1 | 7.53 |
| O=C(c1ccc2ccccc2c1)N1CCc2ccccc21 | 12.4 |

From paper PMC4336329 (PLoS ONE, 2015)
